In the supplement of paper PMC11417369:
± gives the standard deviation of the averaged measurements. This is one part of the list.

tested on: PfAP2-G AP2 domain (GST-tagged); assay: gcPBM binding intensity (ln(normalized median fluorescence intensity)); higher = stronger DNA binding
In short: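 The binding buffer was 1× PBS containing 1% milk, 0.2 mg/ml BSA, 0.5% salmon testes DNA and 0.03% Triton X-100. In it, GST-tagged P. falciparum DNA-binding domains expressed in E. coli were applied for 1 h to an Agilent 4 × 180k array of primer-extended double-stranded 36-bp intergenic genomic probes plus negative controls. Binding intensity, read with Alexa488 anti-GST antibody and a 488 nm scan, is the highest Masliner-normalised natural-log median intensity across replicate spots of either probe orientation.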

Sequence | gcPBM binding intensity (ln)
TTTATTTTAACTTGTTCACACATTTGAATAAATAAA [CACACA_site5064] | 10.1 ± 0.26
GGGTTGATATATATTTGTACATATTATTATTTATTA [XGTACX_site7116] | 11 ± 0.54
TTAATAAAACTAACACGTACACATATATAATATTAT [XGTACX_site3260] | 11.5 ± 0.98
ATTGTCATCATTATATGTACGTAAAAGAATATAGAT [XGTACX_site3117] | 11.5 ± 1
GAAAGAAGCATAAATGTACACACATATTTATATATT [CACACA_site8368] | 11.3 ± 0.81
TATTTTACTTTAAAAATGGAAAAAAAAAAGAATATT [CACACA_negctrl_site1360] | 9.995 ± 0.078
TTTTTTTTTTTTACATGTACATATGAATTATAATAT [XGTACX_site5016] | 11.2 ± 0.78
TATGTTAAAAAAAAAAAAAAGAAAAAAATAAAAGGA [CACACA_negctrl_site119] | 9.535 ± 0.035
AAACAAATAGACACTTGTACGTAAGTAAATAATTAA [XGTACX_site6157] | 11.3 ± 0.86
AAGGGAAAAATATGGTTGCACTAAAAATATGTAATT [GTGCAC_site9605] | 10.2 ± 0.16
CTTTATACATGACATAGTACCCATTTTAGATTTGAA [XGTACX_site5240] | 11 ± 0.62
TTTCTATATAGATTTGCACACATAAAAATGCTTATA [CACACA_site2390] | 9.95 ± 0.11
TATATTAATTATAAGACACACATATAGTAATAGAAA [CACACA_site2056] | 10.02 ± 0.085
AATAAGAAAACAAATGCACACCATTTATATAGATTA [CACACA_site8261] | 9.795 ± 0.092
ATGGGTTAGGCGTGTACACAATTGTATGGTTTAATA [CACACA_site4812] | 11.6 ± 1
GTATATTACATAAAATGTACATAAAAAGCGGAAAAG [XGTACX_site6905] | 11.2 ± 0.64
ACATATTTTTACTTTTGTACATATTTTTTAATTTTC [XGTACX_site640] | 11.1 ± 0.44
TTTATATATTTTTATCTTGATAATAATGTTTTAGAA [TGCATGCA_negctrl_site300] | 9.7 ± 0.15
TATTCTCGTTCTCATACACACAAAATATACATACAC [CACACA_site7278] | 10.4 ± 0.33
GGGTTAATATTTACTACACACACTTAAAATATGTAT [CACACA_site47] | 10.05 ± 0.092
ATGTATTTTTAAAAATATAAATTATGTAACTTGTGA [XGTACX_negctrl_site620] | 10.1 ± 0.2
TACTGATATAATATAACCGTTTATGTGTATTTTTTA [XGTACX_negctrl_site81] | 9.66 ± 0.11

Sequence | gcPBM binding intensity (ln)
TATAATAAAATTTTTACACACTTTAAAAAAAAAAAA [CACACA_site524] | 9.85 ± 0.19
AAATATAATTAATGATGTACACTTATAGATATTGAT [XGTACX_site8435] | 11.4 ± 0.68
TTTTCTCTAAAAAGGTGTACAACTAATAATGCACTG [XGTACX_site6074] | 11.7 ± 0.83
ATATATATATAATATTGTACGAAAAAAAATAAAAAA [XGTACX_site974] | 11.1 ± 0.71
CGTGGAAAAAAAAACACACACAAAAAAAAAAAAAAA [CACACA_site3997] | 9.88 ± 0.32
TTCAAATATATGTTTTCACACACAAAAGAAATGAAA [CACACA_site8671] | 9.95 ± 0.19
TATATATATATGTAATGTACATAAATTTTATACCTT [XGTACX_site6991] | 11 ± 0.52
ATATTTATATATTGCACACAAAAAAAAAAAAAAATC [CACACA_site1629] | 10.1 ± 0.3
AAAAAAAAAAAAAAATGTACATATATATAAATAAAA [XGTACX_site5574] | 11.3 ± 0.88
CAGTAGTATATACTATGTACATATTTATATTATATT [XGTACX_site4964] | 11.1 ± 0.57
TAATAAATAAAAATAGAACACACATATGTTTTTTTT [CACACA_site9185] | 9.65 ± 0.14
AATATAAATAAACACACACACATATATATATATATT [CACACA_site2906] | 9.895 ± 0.021
GAGTGAAATATGCAAACACACACGAGAAAAATGTAT [CACACA_site3196] | 10.11 ± 0.092
TATGGTTTTAAAAAATGTACGCAAGTGCGTTAATTT [XGTACX_site3945] | 11.3 ± 0.75
TATATTCATAATATTACACACGTTCATTTATTTTAA [CACACA_site2031] | 10.04 ± 0.014
ACATTTAAAATTTATGCATGTGGTGTTTTGTATATA [TGCATGCA_site534] | 10.1 ± 0.25
TTTGTGTAGGTGTGTAGTACATATAACTTATAACAT [XGTACX_site7885] | 11.5 ± 0.93
TAATAAAATGTACACGCATGCAATAGAATATAAAGT [TGCATGCA_site905] | 11.4 ± 0.95
AACAACCAAACGCACACACACAAAAAAAAAAATATA [CACACA_site6326] | 10.2 ± 0.47
TTATATGCATAAAAAGGTACACATATATAAATAAAT [XGTACX_site6894] | 11.4 ± 0.77
TTTTTTTGTTAAAAGGTGCTAATATATATAAGTGCT | 9.96 ± 0.2
GTCCCTATAAGGGGAACACACATAAATGAATATATA [CACACA_site1024] | 10.5 ± 0.44
